# From PubChem BioAssay AID2060495 (Molecular Pharmacology Branch, DTP, NCI, 2025)
# The source holds more than one record for some entries. This is not the full list of results. An entry can have further records. Results that share an entry are repeats across runs, samples, wells, individuals or studies. Counts like (3×) say how often a value occurs here.
# Test system: 521955-158-R2-J5-PDC complex spheroid viability
# Test: Anticancer human tumor 521955-158-R2-J5-PDC patient-derived pancreatic carcinoma cell line growth inhibition [GQUAD]
# Details: for viability, T/C: stronger effect = lower value
# Source text: DNA G-quadruplex Stabilizer Agents in Combinations in Complex Spheroids
# A high-throughput screen of multi-cell type tumor spheroids was designed to identify active combinations of DNA G-quadruplex stabilizer agents and targeted small molecules. Complex spheroids include a stromal component modeled by human endothelial cells (HUVEC) and fibroblasts modeled by human mesenchymal stem cells (MSCs). The concentration ranges selected for each drug and investigational agent were based upon clinically achievable concentrations if the clinical Cmax of the agent was known.
# Compounds. The drugs and investigational agents: pidnarulex (CX-5461; NSC782164), APTO-253 (NSC789042), BRACO-19 (NSC847499), peposertib (NSC802822), ceralasertib (NSC780249), elimusertib (NSC800525), camonsertib (NSC841442), AZD-1390 (NSC803789), olaparib (NSC753686), talazoparib (NSC767125), ART-558 (NSC835418), sotorasib (NSC818433), MRTX-1133 (NSC836407), SN-38 (NSC673596), topotecan (NSC609699), etoposide (NSC141540), doxorubicin (NSC123127), gemcitabine (NSC613327), 5-fluorouracil (NSC19893), paclitaxel (NSC125973), vemurafenib (NSC761431), panobinostat (NSC761190), R-306465 (JNJ-16241199; NSC773264), adavosertib (NSC754352), TP-3654 (NSC805149), carboplatin (NSC241240), KSQ-4279 (NSC840948), and staurosporine (NSC755774) were obtained from the National Cancer Institute (NCI) Developmental Therapeutics Program Chemical Repository (34). The FDA-approved anticancer drug set is available from the NCI Developmental Therapeutics Program. […] The stock solutions were prepared in dimethyl sulfoxide (DMSO, Sigma-Aldrich, St. Louis, MO, cat. D2650) at 800-fold the tested concentration and stored at -70 degrees C prior to their use. All drugs and investigational agents were tested over a range starting from a high concentration at or near the clinical Cmax and decreasing in half-log increments. If the clinical Cmax for an agent had not been determined, the highest concentration tested was 10 microM.
# 2.3 Cell Culture. All cells were maintained in an incubator at 37 degrees C and 5% CO2 with 95% humidity. The PDC lines were cultured according to standard operating procedures established by the NCI PDMR. All PDCs were thawed and cultured in Matrigel-coated flasks prepared with a working solution of 1X Ham's F-12 nutrient mix, without supplementation (Invitrogen, cat. 11765054), 100 U/mL penicillin-streptomycin (Invitrogen, cat. 15140122), and 2.5% Matrigel (Corning Inc., cat. 354248) for the first three passages. […]
# 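Further: spheroids exposed to agents for one week before reading.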
# 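Wherever viability, T/C is given: 100% = DMSO vehicle control viability.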
compound,measurement,setting,value
Cc1cnc(CNC(=O)c2c(=O)c3ccc(N4CCCN(C)CC4)nc3n3c2sc2ccccc23)cn1,"viability, T/C",compound alone 0.1 µM,"56.1, 53.5, 57.8, 83.4, 60.4, 50.5, 56.8, 69.6, 53.8, 56.4, 53.9, 52.7%"
C#Cc1c(F)ccc2cc(O)cc(-c3ncc4c(N5CC6CCC(C5)N6)nc(OCC56CCCN5CC(F)C6)nc4c3F)c12 (centres undefined),IC50,compound alone,"< 31.6 nM, 2.32 µM, 576 nM"
Cc1[nH]c2ccc(F)cc2c1-c1nc2c3cccnc3c3ncccc3c2[nH]1,"viability, T/C",compound alone 0.316 µM,"108 (2×), 88.3, 89.9, 101, 100, 111, 97.9, 94.7, 95.7, 86.1, 113%"
same,"viability, T/C",compound alone 3.16 µM,"79.2, 91.2, 89.1, 81.2, 93.3, 99.7, 87.2, 83.4, 84.2, 71.7, 79.4, 82%"
